{"source": "the supplement of paper PMC11417369", "note": "± gives the standard deviation of the averaged measurements. The list shows a part of the results."}
{"test_system": "PfAP2-G AP2 domain (GST-tagged)", "test": "gcPBM binding intensity (ln(normalized median fluorescence intensity)); higher = stronger DNA binding", "method_in_brief": "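Using an Agilent 4 × 180k array, primer-extended double-stranded 36-bp intergenic genomic probes and negative controls were exposed for 1 h to GST-fused P. falciparum DNA-binding domains expressed in E. coli. Binding was carried out in 1× PBS with 1% milk, 0.2 mg/ml BSA, 0.5% salmon testes DNA and 0.03% Triton X-100, and protein was detected with Alexa488 anti-GST antibody and a 488 nm scan. Binding intensity is the highest Masliner-normalised natural-log median intensity across replicate spots of either probe orientation.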"}
{"sequence": "ATCTATCATATTTATGCACACAAAAATAATTAATTC [CACACA_site8837]", "gcPBM binding intensity (ln)": "10.3 ± 0.26"}
{"sequence": "TTGATTAAAATTAGTACACACAAAATACATGCGGGG [CACACA_site5284]", "gcPBM binding intensity (ln)": "11.6 ± 0.94"}
{"sequence": "TTAAATATAATTATATGTACATATTTATGTATATAT [XGTACX_site5811]", "gcPBM binding intensity (ln)": "11.2 ± 0.73"}
{"sequence": "AGATTGTATTTATGTACACACATTTTTGGAATATGA [CACACA_site1340]", "gcPBM binding intensity (ln)": "11.4 ± 0.73"}
{"sequence": "TTAATTATCCATTTTGCACACATTTTAAAACATGAA [CACACA_site189]", "gcPBM binding intensity (ln)": "10.2 ± 0.092"}
{"sequence": "AATTTACAAAAAAGAAAAAAAAAAAAAAAGATACTT [CACACA_negctrl_site1434]", "gcPBM binding intensity (ln)": "9.65 ± 0.071"}
{"sequence": "ATATGCACTCATTGTGCACACGCATATTACGAAAAG [CACACA_site2637]", "gcPBM binding intensity (ln)": "10.7 ± 0.39"}
{"sequence": "ATATTATAATGTTTTTACGAATTCGCAAATTATTAT [GTGCAC_negctrl_site470]", "gcPBM binding intensity (ln)": "9.835 ± 0.064"}
{"sequence": "TTTTTTTTTTTTTTTTTTTTTTTTTTATGATATATA [GTGCAC_negctrl_site365]", "gcPBM binding intensity (ln)": "9.63 ± 0.44"}
{"sequence": "TATATATTAAAATAATCACACACATCAATTAATGGT [CACACA_site8331]", "gcPBM binding intensity (ln)": "9.945 ± 0.049"}
{"sequence": "TAATTTATTACCATGTAATTATTACGAATATAGGAT [CACACA_negctrl_site694]", "gcPBM binding intensity (ln)": "10.1 ± 0.28"}
{"sequence": "AAAAAATTATTAATTTGTACATAAATAACCAAAAAA [XGTACX_site2488]", "gcPBM binding intensity (ln)": "10.7 ± 0.36"}
{"sequence": "ATATATTTTTTAAATTTAAAAATTATAAAATTTATA [TGCATGCA_negctrl_site36]", "gcPBM binding intensity (ln)": "9.7 ± 0.099"}
{"sequence": "TAAATAAAAAAAAAAAGTACATACATACAAACATAT [XGTACX_site4427]", "gcPBM binding intensity (ln)": "11.4 ± 0.88"}
{"sequence": "ATATATGTGCGCGTATGTACATAAAATAAATATACA [XGTACX_site2689]", "gcPBM binding intensity (ln)": "11.5 ± 0.84"}
{"sequence": "TCTCATAGGAAACACACACACACACCCACATATATA [CACACA_site1738]", "gcPBM binding intensity (ln)": "10.4 ± 0.36"}
{"sequence": "ATATATTTTTAATTACGTACTTAATAATATATACAA [XGTACX_site3285]", "gcPBM binding intensity (ln)": "11.3 ± 0.85"}
{"sequence": "TAAAAGAAAAATTAGTGTACCAATATTAACATAAAA [XGTACX_site5474]", "gcPBM binding intensity (ln)": "11.1 ± 0.64"}
{"sequence": "TGGGTCTCTAACTGGTGTACTATTTACATATTATAC [XGTACX_site8593]", "gcPBM binding intensity (ln)": "11.5 ± 0.93"}
{"sequence": "TATGATTTTAACAACTGTACAATATAATAAATCTAA [XGTACX_site2198]", "gcPBM binding intensity (ln)": "11.1 ± 0.79"}
{"sequence": "GAAAAAGACAAAAGGTGTACAATATGAAATATATAT [XGTACX_site373]", "gcPBM binding intensity (ln)": "11.5 ± 0.86"}
{"sequence": "ATATTATGATCTATTTTTATATTCTATTTGATAAAT [CACACA_negctrl_site1070]", "gcPBM binding intensity (ln)": "9.795 ± 0.035"}
{"sequence": "GTTCACCAAAGGTAACGTACACAAACATATATATAT [XGTACX_site1073]", "gcPBM binding intensity (ln)": "11.4 ± 0.93"}
{"sequence": "TATACAATATATTTTGGTACACAAACAAAAAAATAT [XGTACX_site2522]", "gcPBM binding intensity (ln)": "11.2 ± 0.82"}
{"sequence": "ATTAAAAGAACCAAGTGTACATTCTATATATAAAAA [XGTACX_site4260]", "gcPBM binding intensity (ln)": "11.1 ± 0.69"}
{"sequence": "TATATATATATTATATGTACATAAATATTTATACTC [XGTACX_site114]", "gcPBM binding intensity (ln)": "11.2 ± 0.71"}
{"sequence": "TTGATAAAATGGGAGAAATTAAAAAGGAAAAAAAAA [CACACA_negctrl_site1279]", "gcPBM binding intensity (ln)": "9.87 ± 0.12"}
{"sequence": "CTATTTTATATGTGCACACATATACACCCACAAATA [CACACA_site1131]", "gcPBM binding intensity (ln)": "10.8 ± 0.57"}
{"sequence": "TTATAAAATTTTCTTCTATATTTTAATTATTCTCAT [TGCATGCA_negctrl_site571]", "gcPBM binding intensity (ln)": "9.68 ± 0.2"}
{"sequence": "TAATTCTAAATAAATGTACACACAAAAATAAATGTA [CACACA_site8509]", "gcPBM binding intensity (ln)": "11.4 ± 0.88"}
{"sequence": "AATTTATAAGAATATTGTACGTTTAATATATTGTAA [XGTACX_site7553]", "gcPBM binding intensity (ln)": "11.2 ± 0.67"}
{"sequence": "ATTCTAATAGATAGTAGTACCTATAAGTTTTCTTTT [XGTACX_site2315]", "gcPBM binding intensity (ln)": "10.9 ± 0.52"}
{"sequence": "GTTGTCCCCCTTTCTATGCACACTTTAAATTATTCA [CACACA_site52]", "gcPBM binding intensity (ln)": "11.4 ± 1.1"}
{"sequence": "TATGTGTTCAGTATTGCACACACACTCCAAAATAAA [CACACA_site8018]", "gcPBM binding intensity (ln)": "10.4 ± 0.34"}
{"sequence": "ACTTCATTTTATAAGTGTACATAATTTGTTTATATA [XGTACX_site5453]", "gcPBM binding intensity (ln)": "11.5 ± 0.85"}
{"sequence": "ATAAATACTAGGCACACACACATATAGATTTATATA [CACACA_site7064]", "gcPBM binding intensity (ln)": "10.2 ± 0.13"}
{"sequence": "AAAATAATAATTAAATAATAGTAAATGAAAAATAAA [CACACA_negctrl_site57]", "gcPBM binding intensity (ln)": "9.85 ± 0.13"}
{"sequence": "AAGTTTATTATATATAAATTATTATATATATATATA [CACACA_negctrl_site189]", "gcPBM binding intensity (ln)": "9.91 ± 0.44"}
{"sequence": "TTTATACATACATTCGTGCACATACGTATAACATAT", "gcPBM binding intensity (ln)": "10.6 ± 0.38"}
{"sequence": "ATATAAATATATGTATGTACACATTTTTTTTTTTTT [XGTACX_site247]", "gcPBM binding intensity (ln)": "11.4 ± 0.71"}
{"sequence": "AGAATTATAAATTATAGTACATAAAATTTTGATGTA [XGTACX_site5726]", "gcPBM binding intensity (ln)": "11.2 ± 0.61"}
{"sequence": "ATATCAACTGAATTGTATAGGCGATAAAAGAAAAAA [CACACA_negctrl_site1334]", "gcPBM binding intensity (ln)": "9.775 ± 0.021"}
{"sequence": "CATGTGTGTATAATTTGTACATATACATAATAAATA [XGTACX_site2418]", "gcPBM binding intensity (ln)": "11 ± 0.61"}
{"sequence": "CTAAACTAAACAAACTGTACACAAATAAAACAATAA [XGTACX_site8880]", "gcPBM binding intensity (ln)": "11.4 ± 1"}
{"sequence": "AAACGATCTCGATGTTGTACACATTTATATAGAAAC [XGTACX_site4373]", "gcPBM binding intensity (ln)": "11.5 ± 0.85"}
{"sequence": "TATACCTATAAATACACACACATATATAAATATGTA [CACACA_site6625]", "gcPBM binding intensity (ln)": "9.92 ± 0.16"}
{"sequence": "TCCTTAAAAATCTAAAAAGAAAAAAACATATATTTT [GTGCAC_negctrl_site123]", "gcPBM binding intensity (ln)": "9.565 ± 0.092"}
{"sequence": "ATTATTATATATATAACACACATAATTATATACTTA [CACACA_site1563]", "gcPBM binding intensity (ln)": "9.9 ± 0.042"}
{"sequence": "AAGTCAATTTTTTTTTTTTTTTTTTAACTTATTAAT [TGCATGCA_negctrl_site14]", "gcPBM binding intensity (ln)": "9.605 ± 0.078"}
{"sequence": "GATCACTGAATAAAGGCACACATCTGACTAATTTTT [CACACA_site66]", "gcPBM binding intensity (ln)": "9.935 ± 0.007"}
{"sequence": "AAATAAAAACCATATCGTACAAAAATTTTTGTATTT [XGTACX_site7497]", "gcPBM binding intensity (ln)": "10.7 ± 0.24"}
{"sequence": "ATATATATATATATATGTACTTAAAAATTTGTTTTG [XGTACX_site1514]", "gcPBM binding intensity (ln)": "11.2 ± 0.86"}
{"sequence": "AATGTATATAATATTAATATGTAAATATATAATCAA [CACACA_negctrl_site1683]", "gcPBM binding intensity (ln)": "9.78 ± 0.15"}
{"sequence": "TTAAAAAGTGCGTAGTGTACTAATATAAATAATACA [XGTACX_site2922]", "gcPBM binding intensity (ln)": "11.3 ± 0.88"}
{"sequence": "TGAATAAATATATATACACACCCATATATATATATA [CACACA_site8833]", "gcPBM binding intensity (ln)": "10.1 ± 0.57"}
{"sequence": "AAAAAAATAACAAAATGTATACAATATAACAAAAAT [GTGCAC_negctrl_site512]", "gcPBM binding intensity (ln)": "9.98 ± 0.028"}
